Assay results as given in PMC4336329 (PLoS ONE, 2015).
The whole screen tested about 310,000 compounds, of which about 14,000 (4.5%) showed an effect of 50% or more. Effects have a minus sign here. This is one part of the list.

target: human ether-à-go-go-related gene (hERG) potassium channel (human, UniProt Q12809); experiment: primary screen, population patch clamp on CHO cells stably expressing hERG
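Further: peak tail current of the secondary pulse compared with the same well before compound.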

Sequence of human ether-à-go-go-related gene (hERG) potassium channel (Q12809 whole entry, looked up): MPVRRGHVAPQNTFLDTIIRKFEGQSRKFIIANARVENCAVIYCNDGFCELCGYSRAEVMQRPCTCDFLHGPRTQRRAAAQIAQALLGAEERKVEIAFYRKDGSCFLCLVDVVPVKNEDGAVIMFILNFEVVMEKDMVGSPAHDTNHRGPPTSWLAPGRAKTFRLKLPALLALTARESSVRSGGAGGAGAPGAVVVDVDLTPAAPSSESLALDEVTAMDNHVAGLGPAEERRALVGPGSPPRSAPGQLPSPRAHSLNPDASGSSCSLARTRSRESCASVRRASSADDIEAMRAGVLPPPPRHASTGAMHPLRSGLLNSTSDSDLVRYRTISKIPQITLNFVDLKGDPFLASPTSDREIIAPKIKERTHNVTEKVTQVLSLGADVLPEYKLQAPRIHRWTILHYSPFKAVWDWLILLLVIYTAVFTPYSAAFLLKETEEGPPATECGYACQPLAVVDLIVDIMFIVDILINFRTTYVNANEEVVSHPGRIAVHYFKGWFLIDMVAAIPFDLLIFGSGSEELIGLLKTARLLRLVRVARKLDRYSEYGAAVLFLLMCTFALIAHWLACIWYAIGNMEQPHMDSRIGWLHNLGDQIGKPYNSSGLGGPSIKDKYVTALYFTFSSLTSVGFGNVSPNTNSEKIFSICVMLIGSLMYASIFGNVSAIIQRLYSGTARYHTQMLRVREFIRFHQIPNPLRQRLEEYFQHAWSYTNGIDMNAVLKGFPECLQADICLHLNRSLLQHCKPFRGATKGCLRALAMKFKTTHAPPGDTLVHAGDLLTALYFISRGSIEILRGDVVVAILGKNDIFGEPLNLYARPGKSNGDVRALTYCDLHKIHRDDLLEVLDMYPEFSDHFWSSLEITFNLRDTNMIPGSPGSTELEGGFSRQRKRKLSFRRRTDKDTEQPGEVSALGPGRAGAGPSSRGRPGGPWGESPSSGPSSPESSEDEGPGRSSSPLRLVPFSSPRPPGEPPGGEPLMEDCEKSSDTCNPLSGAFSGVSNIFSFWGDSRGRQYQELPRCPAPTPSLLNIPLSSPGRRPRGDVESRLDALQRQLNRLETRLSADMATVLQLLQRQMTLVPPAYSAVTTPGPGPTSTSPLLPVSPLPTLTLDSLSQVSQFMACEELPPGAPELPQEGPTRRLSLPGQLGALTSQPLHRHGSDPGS

SMILES | hERG current change (%, negative = inhibition) at 10uM
C[C@@H](NC(=O)c1ncn(C)c1C(=O)N[C@H](C)c1ccccc1)c1ccccc1 | -2.69%
Cc1cc(C)c(NC(=O)CNC(=O)[C@@H]2CCCN2C(=O)c2cccs2)c(C)c1 | -3.04%
COc1ccc(CCNC(=O)C2CC(c3ccccc3C(F)(F)F)=NO2)cc1 (stereo not drawn) | -0.696%
CCCCOC(=O)C1=C(C)NC2=C(C(=O)CCC2)C1c1cc(OC)ccc1OC (stereo not drawn) | -14.8%
CCOC(=O)C1CCN(C(=O)Cc2ccc(-c3ccccc3)cc2)CC1 | -57.7%
Cn1c(N)c(S(=O)(=O)NCc2ccccc2)c(=O)n(C)c1=O | 17.7%
Cc1ccc(NC(=O)COC(=O)CNC(=O)c2cccc([N+](=O)[O-])c2)cc1S(=O)(=O)N1CCCCCC1 | -49.1%
CCOc1cc(NC(=O)c2cccs2)c(OCC)cc1NC(=O)CCC(=O)NCC1CCCO1 (stereo not drawn) | 18.2%
O=C(c1ccco1)n1nc(-c2cccnc2)nc1NCc1ccco1 | -11.1%
CC1=Nc2ccccc2N=C(NC(=O)CN2CCN(c3ccccc3)CC2)C1c1ccccc1 (stereo not drawn) | 17%
Cc1ccc(/C=C/C(=O)N2CC(=O)Nc3ccccc32)o1 | -24.2%
CCCCn1c(N)c(N(CCC(C)C)C(=O)C2CC(=O)N(CCc3ccc(OC)c(OC)c3)C2)c(=O)[nH]c1=O (stereo not drawn) | -11.5%
NC(=O)c1ccc(-n2nnnc2SCC(=O)Nc2ccccc2F)cc1 | 18.9%
Cc1nc(S(=O)(=O)N2CCOCC2)c(C#N)c(C)c1Cl | 4.49%
COC(=O)c1ccccc1NC(=O)CNC(=O)c1ccc(OC)c(OC)c1 | -0.204%
CCOc1cc(CNCc2ccccn2)cc(Cl)c1OCC.Cl | -0.796%
O=C(C1CCN(S(=O)(=O)N2CCOCC2)CC1)N1CCc2ccccc21 | -3.51%
Cn1c(=O)c2[nH]c(CNc3ccc(C(=O)O)cc3)nc2n(C)c1=O | 0.163%
COc1ccc(-c2onc3ccc(Br)cc23)cc1 | 8.68%
O=C(NCCc1ccc(F)cc1)c1n[nH]c2ccccc12 | 0.395%
CCc1nc2ccccc2n1CC(=O)Nc1cc(C)on1 | 5.49%
COc1cccc(NS(=O)(=O)c2ccc3c(c2)CC(=O)N3)c1 | -0.388%
Cc1ccc(C(=O)N2C(=O)C(c3ccccc3)Oc3ccccc32)cc1 (stereo not drawn) | 3.82%
CCN(CC)CCN1C(=O)C(=O)/C(=C(/O)c2ccc(OC(C)C)cc2)C1c1ccncc1 (stereo not drawn) | 14.6%
CN=C1S/C(=C\c2cn(CC(=O)OC)c3ccccc23)C(=O)N1C | 7.11%
Cc1nnc(SCc2ccc([N+](=O)[O-])cc2)[nH]c1=O | 15%
CCCC1(CCC)NC(=O)N(CC(=O)Nc2ccccc2OC)C1=O | 5.47%

SMILES | hERG current change (%, negative = inhibition) at 10uM
CCc1noc(C)c1C(=O)Nc1ccccc1C(C)(C)C | -4.94%
COc1ccc(CCNC(=O)Cn2cnc3ccccc3c2=O)cc1OC | 13%
CCc1ccc(/C=C2\C(=N)N3N=C(CC(=O)N4CCCCC4)SC3=NC2=O)cc1 | 11.9%
COc1cc(NC(=O)CN2CCCCCC2)cc(OC)c1 | 5.28%
FC(F)(F)c1ccc2c(c1)ncn2C1CCN(Cc2nnnn2C2CCCCC2)CC1 | -59.6%
CN(C)c1ccc(S(=O)(=O)NCC(=O)NCC2CCCCC2)cc1[N+](=O)[O-] | -1.3%
O=C(NNc1nc(-c2ccccc2)c2cc(Br)ccc2n1)c1ccc(S(=O)(=O)N2CCOCC2)cc1 | -8.01%
COc1ccc(CC(=O)NCC2CCCCC2)cc1OC | -1.62%
CCCCCCCCS(=O)c1sc2nc(C)cc(C)c2c1N (stereo not drawn) | -17.2%
N#Cc1cc2c(nc1SCC(O)CS(=O)(=O)Cc1ccc(Cl)cc1)CCCC2 (stereo not drawn) | -33.1%
O=C(c1ccccc1)N1CCN(C(=O)c2nn3c(C(F)(F)F)cc(-c4ccco4)nc3c2Br)CC1 | -4.55%
COc1ccc(C(=O)NC(=S)N(C)Cc2ccccc2)cc1Br | 8.47%
CC(=O)Nc1cccc(C(=O)/C=C/c2ccc[nH]2)c1 | 2.65%
CCN(CC)CCCNC(=O)c1ccc(N2CCCCC2)c(NS(=O)(=O)c2ccc(C)cc2)c1 | -69.2%
COc1ccc(C(C)=O)cc1COC(=O)c1cc(C)oc1C | 2.15%
O=C(Nc1ccc(S(=O)(=O)N2CCCC2)cc1)c1cccc(OC(F)F)c1 | -54.3%
Cc1cc(C(=O)CSc2nnnn2C)c(C)n1CCc1ccc(F)cc1 | -0.0703%
Cn1cc(Br)c(C(=O)Nc2nccs2)n1 | 10.5%
CCc1ccc(OCc2nc(-c3ccccn3)no2)c(Br)c1 | -14.6%
CCOC(=O)NC(N(O)c1cccc(Cl)c1)C(Cl)(Cl)Cl (stereo not drawn) | -74.2%
COc1ccc(NC2=CC(c3ccc(OC)c(OC)c3)N(c3ccc(OC)cc3)C2=O)cc1 (stereo not drawn) | -2.31%
Cc1cc(C(=O)OCC(=O)Nc2ccc(S(=O)(=O)N3CCOCC3)cc2)c(C)o1 | -10.2%
COC(=O)[C@@H]1CC[C@H](C)[C@@H](c2ccc(C)cc2)N1C(=O)c1ccc(/C=N/O[C@@H](C)CN2CCCCc3nc(C)c(C)cc32)cc1 | 0.594%
Cc1ccc(C2=NS(=O)(=O)N(C)C(C(=O)Nc3ccc(F)cc3F)=C2)cc1 | -17%
C=CCOC(=O)C1C(=O)CC(C)(O)C(C(=O)OCC=C)C1c1ccc(OC)cc1 (stereo not drawn) | 3.27%
CC(C)c1ccc(/C=C/C(=O)n2nnc3ccccc32)cc1 | 15.5%
CCCn1nc(C(=O)Nc2ccc(S(=O)(=O)Nc3ncccn3)cc2)c2ccccc2c1=O | 2.11%
